# Laboratory results taken from the supplement of paper PMC3334620.
# Whole data set: some 33,000 sequences, median “E-score (-0.5 to 0.5)” near -0.035, cut for the highest 2% near 0.34. The list shows a part of the results.
# Biological target: T1, Mot3 (UniProt P54785)
# T1 sequence: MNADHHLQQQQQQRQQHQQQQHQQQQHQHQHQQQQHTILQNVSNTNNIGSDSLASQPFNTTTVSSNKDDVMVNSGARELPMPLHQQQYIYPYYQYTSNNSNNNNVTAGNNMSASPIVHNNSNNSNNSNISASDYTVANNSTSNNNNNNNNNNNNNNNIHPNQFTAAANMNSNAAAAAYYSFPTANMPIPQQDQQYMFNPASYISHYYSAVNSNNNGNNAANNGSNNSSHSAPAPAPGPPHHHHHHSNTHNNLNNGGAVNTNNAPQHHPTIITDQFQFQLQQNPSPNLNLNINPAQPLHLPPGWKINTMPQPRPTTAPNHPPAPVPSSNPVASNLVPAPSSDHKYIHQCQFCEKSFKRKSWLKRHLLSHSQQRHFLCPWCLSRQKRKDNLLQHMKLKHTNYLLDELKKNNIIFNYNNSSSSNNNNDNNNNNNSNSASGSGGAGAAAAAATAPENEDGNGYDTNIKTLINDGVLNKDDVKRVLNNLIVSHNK
# Experiment: PBM E-score (8-mer binding enrichment) (E-score (-0.5 to 0.5)); higher = stronger / more preferred TF binding; most listed sequences are background and not binding sites
# Conditions: protein concentration: 200 nM; construct: GST-full length
# How it was run: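 Bound GST-tagged yeast transcription factors, applied at about 100-200 nM to double-stranded universal all-10-mer Agilent arrays, were detected with fluorescent anti-GST. Scans were normalised with masliner. A modified Wilcoxon-Mann-Whitney statistic, the E-score, was assigned to each ungapped eight-base word pooled with its reverse complement by the Universal PBM Analysis Suite.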
row,Sequence,PBM E-score
1,CCCATCAG,-0.197
2,CGGCATAG,-0.0414
3,CCCGACAG,-0.156
4,ATTACGAA,0.234
5,ACCCCAGC,-0.0512
6,ACGCAAAC,0.0523
7,ATATGAAT,-0.0552
8,CCCGTTAG,-0.267
9,AGGCCGGC,-0.174
10,GATGGTGC,-0.079
11,AGGTGCTA,0.178
12,ATGAACTA,0.0464
13,ACCTATGC,-0.0133
14,CGCGTTAG,0.187
15,ACGTCTTC,-0.129
16,CCCAGCCA,-0.194
17,CCTCGGTA,-0.251
18,ATGTCTAG,0.0738
19,ATACGTGA,0.098
20,ACTTGCGC,0.0581
21,AGGGAAGG,0.0639
22,TAAATCTA,0.13
23,AGCTGCGC,-0.139
24,CCATTCTC,-0.174
25,ATAGTACA,0.166

row,Sequence,PBM E-score
1,CGGTGTAG,0.0783
2,AACGCAAT,0.274
3,AAGCATCA,-0.0962
4,ACCACTTC,-0.267
5,CCGCGCCC,-0.306
6,AAGAGTAC,0.0968
7,GGCCCGGA,-0.204
8,AATAGAGC,0.0999
9,CGTATGGC,-0.0713
10,GTCTTGGA,-0.00695
11,TCTCAAGA,-0.202
12,CAAAATCA,0.166
13,CGAGGTCA,-0.268
14,GCTCCCGA,-0.329
15,ATAGTGTC,-0.133
16,CGGTGAGC,-0.338
17,CCTGTCTA,0.0647
18,AACCGAAC,-0.162
19,CCGCTCGA,-0.265
20,CGCAAGTA,0.221
21,CCGAGAAG,-0.2
22,CCGACAAA,-0.00029
23,AGTTCACG,-0.0179
24,CCTGGCGC,-0.266
25,CGCTTCGC,-0.166

row,Sequence,PBM E-score
1,AAGTTCAC,0.0665
2,CAACTCCC,-0.189
3,CCCTGTAC,-0.0171
4,AACCCAAT,0.0174
5,CAACCCAC,-0.125
6,TGTTATAA,0.35
7,GCGGAGAA,-0.143
8,AATGGACA,-0.0237
9,ATTCACGG,-0.0552
10,AGCTAGTG,-0.0926
11,GTTAAGAA,0.233
12,CCTCGTGA,-0.233
13,ATCCATCC,-0.191
14,ACAAGGTC,0.198
15,AAGTCCAT,-0.0818
16,GACGCAAC,-0.0695
17,CATCATGC,-0.0246
18,AAGCGGAA,-0.0713
19,GTAAGCCA,-0.0855
20,ATTTCTTG,-0.0106
21,CCCATCCG,-0.147
22,CATTATGC,0.00078
23,GGGACACA,-0.157
24,CCCATATA,-0.0469
25,AGTGAAAC,-0.118

row,Sequence,PBM E-score
1,GAGTTACA,0.118
2,CATATGAC,-0.0348
3,ATATTCTC,-0.0374
4,GCACTTCA,0.0635
5,CCTCGAAC,-0.0184
6,CTCTCGGA,-0.159
7,CATCACCG,-0.0699
8,CGGATCTC,-0.307
9,CATATAAA,0.241
10,TCTGAAAA,0.0436
11,ATGCAAAA,0.149
12,GAGCCACC,-0.332
13,ATAATGTG,0.0722
14,AATAGATT,0.119
15,CACCCTAG,0.00452
16,CGATTAAG,0.108
17,ACGACAGC,-0.0477
18,CGTATAAG,-0.0705
19,ATCTGACG,-0.195
20,GCGAGCGA,-0.244
21,ACCCTCAG,-0.139
22,AATGTGGC,-0.147
23,AAGATACT,-0.0295
24,ATCGCATG,0.0898
25,ATTAGGAC,-0.134

row,Sequence,PBM E-score
1,TCTTACAA,0.128
2,GTTAATCA,0.232
3,CAACGAAA,0.126
4,ACGGGAGG,-0.151
5,CGGCCCTA,-0.302
6,GCCGCTCA,-0.25
7,GTAAACTA,0.213
8,GCACCAGC,-0.112
9,CCAAGTTC,-0.078
10,GTGTTCCA,-0.0331
11,GAAAACAC,0.304
12,AGTTAATC,0.0344
13,AGTCAACG,-0.0454
14,ATGGAACG,0.0262
15,CTTAGTAC,0.0025
16,AGAGGTGA,-0.0527
17,ATCCAGAC,-0.173
18,GCACCAAA,0.111
19,ACAGTTAA,-0.0198
20,ACGCCCTA,-0.132
21,AGCCGTGA,0.0247
22,AGTTGCGG,-0.128
23,AAATGGAG,-0.0564
24,GGCCTTCA,-0.0452
25,CACGTATG,0.111

row,Sequence,PBM E-score
1,CGGAATCA,-0.161
2,CTCCCACA,-0.101
3,GCTTGTCA,0.0189
4,ACACGGGA,0.29
5,CAATTTGG,0.0437
6,AACCGACA,0.0529
7,CGTACCGC,-0.194
8,AACACTTC,0.0788
9,GCCCGGGA,-0.167
10,CCCCGCGC,-0.302
11,CTATGGGC,-0.211
12,ATCGGCAC,-0.0944
13,ACCACCCT,-0.208
14,TACTCCCA,0.179
15,CTGGTCAC,-0.0793
16,CAGGCTAC,0.233
17,CGCATATC,-0.0103
18,GCCCCAGA,-0.331
19,CATGATCG,0.0419
20,CCACACCC,-0.133
21,AAGTCTAC,-0.077
22,CCGCACTC,-0.37
23,ATAAATTC,0.112
24,AACAAGGT,0.223
25,AAGCATAT,-0.138

row,Sequence,PBM E-score
1,AACCTTCA,0.215
2,CAAAGCCC,-0.0136
3,AGGAGTTG,0.128
4,ACGTGGAC,0.0457
5,CGGCTAGA,-0.158
6,ACCGGACA,-0.0317
7,AATATACG,0.0747
8,CGTGTCGA,0.288
9,GCAATAAA,0.0136
10,AGCCTACC,-0.207
11,CAGGCAAC,0.489
12,CATAACTC,-0.0466
13,ACTTGTGC,-0.0402
14,CAAAGAGA,-0.161
15,AAAAGTCA,-0.0363
16,CGCTAAAG,-0.0919
17,AAGGTACA,0.394
18,AAATCCTC,-0.184
19,ATAACTCC,-0.175
20,TCGTTGAA,0.0427
21,CTTTACAC,0.415
22,GCTGGCCC,-0.247
